The supplement of paper PMC10369915
This is one part of the list. No stated cut-off is given here; in the data, active = 3.2 or more and inactive = the rest. Most of these values are background signal.

Tests used:
Assay in all cases: enrichment score (SH2-bound / input frequency) (ratio); bacterial display of known human phosphotyrosine sites (pTyr-Var adds point mutants) read by sequencing; higher = stronger binding; tyrosines were phosphorylated by kinases first
Details in all cases: peptide library: pTyr-Var
SHP2 C-SH2 domain E139D = target: SHP2 C-SH2 domain E139D
[1] = target: SHP2 C-SH2 domain wild-type
SHP2 N-SH2 domain L43F = target: SHP2 N-SH2 domain L43F
SHP2 N-SH2 domain T42A = target: SHP2 N-SH2 domain T42A
SHP2 N-SH2 domain T52S = target: SHP2 N-SH2 domain T52S
[2] = target: SHP2 N-SH2 domain wild-type

Measured: enrichment score
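Further: displayed peptides selected on beads carrying the immobilized SH2 domain, with library peptides lacking any tyrosine serving as negative controls.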

FFRKVYHLASV [RBL1_Y796_YF]
inactive: SHP2 C-SH2 domain E139D 0.836 | [1] 0.749 | SHP2 N-SH2 domain L43F 0.585 | SHP2 N-SH2 domain T42A 0.534 | SHP2 N-SH2 domain T52S 0.784 | [2] 0.787

GVRLFYRVRES [RB1_Y454_M457R_YF]
inactive: SHP2 C-SH2 domain E139D 0.245 | [1] 0.218 | SHP2 N-SH2 domain L43F 0.29 | SHP2 N-SH2 domain T42A 0.298 | SHP2 N-SH2 domain T52S 0.222 | [2] 0.238

SLALFYRNVYH [RBL1_Y792_K794N]
inactive: SHP2 C-SH2 domain E139D 0.4 | [1] 0.527 | SHP2 N-SH2 domain L43F 0.504 | SHP2 N-SH2 domain T42A 0.44 | SHP2 N-SH2 domain T52S 0.483 | [2] 0.571

SEHLTYLEFKS [RASGRP1_Y215]
inactive: SHP2 C-SH2 domain E139D 0.899 | [1] 1.01 | SHP2 N-SH2 domain L43F 0.928 | SHP2 N-SH2 domain T42A 0.977 | SHP2 N-SH2 domain T52S 0.705 | [2] 1.18

DVVKDCAFVHM [RBM14_Y114_Y114C]
inactive: SHP2 C-SH2 domain E139D 0.855 | [1] 0.815 | SHP2 N-SH2 domain L43F 0.709 | SHP2 N-SH2 domain T42A 0.596 | SHP2 N-SH2 domain T52S 0.738 | [2] 0.793

SFPREYGSQEG [RBM10_Y48_YF]
inactive: SHP2 C-SH2 domain E139D 0.494 | [1] 0.548 | SHP2 N-SH2 domain L43F 0.571 | SHP2 N-SH2 domain T42A 0.678 | SHP2 N-SH2 domain T52S 0.438 | [2] 0.548

FFRNVYHLASV [RBL1_Y796_K794N_YF]
inactive: SHP2 C-SH2 domain E139D 0.811 | [1] 0.534 | SHP2 N-SH2 domain L43F 0.559 | SHP2 N-SH2 domain T42A 0.511 | SHP2 N-SH2 domain T52S 0.74 | [2] 0.495

PGGNIYISPLK [RB1_Y805]
inactive: SHP2 C-SH2 domain E139D 0.417 | [1] 0.529 | SHP2 N-SH2 domain L43F 1.29 | SHP2 N-SH2 domain T42A 0.63 | SHP2 N-SH2 domain T52S 0.404 | [2] 0.594

SLALFYRKVFH [RBL1_Y792_YF]
inactive: SHP2 C-SH2 domain E139D 0.485 | [1] 0.443 | SHP2 N-SH2 domain L43F 0.427 | SHP2 N-SH2 domain T42A 0.617 | SHP2 N-SH2 domain T52S 0.506 | [2] 0.56

KSIDEYLKLVG [RASAL2_Y381_E379D]
inactive: SHP2 C-SH2 domain E139D 1.02 | [1] 1.01 | SHP2 N-SH2 domain L43F 0.779 | SHP2 N-SH2 domain T42A 0.782 | SHP2 N-SH2 domain T52S 1.02 | [2] 0.62

FRDMDYRSFPH [RBM10_Y41_R46H_YF]
inactive: SHP2 C-SH2 domain E139D 0.862 | [1] 0.801 | SHP2 N-SH2 domain L43F 0.828 | SHP2 N-SH2 domain T42A 0.843 | SHP2 N-SH2 domain T52S 0.772 | [2] 0.936

IGSQRYQLGVR [RB1_Y446_K447Q]
inactive: SHP2 C-SH2 domain E139D 0.791 | [1] 0.666 | SHP2 N-SH2 domain L43F 0.697 | SHP2 N-SH2 domain T42A 0.69 | SHP2 N-SH2 domain T52S 0.622 | [2] 0.704

DVVKDYAFVHM [RBM14_Y114]
inactive: SHP2 C-SH2 domain E139D 0.757 | [1] 0.919 | SHP2 N-SH2 domain L43F 0.746 | SHP2 N-SH2 domain T42A 0.726 | SHP2 N-SH2 domain T52S 0.876 | [2] 0.861

TEDELYQLFLQ [RASGRP2_Y378_S381F]
inactive: SHP2 C-SH2 domain E139D 0.726 | [1] 0.658 | SHP2 N-SH2 domain L43F 0.708 | SHP2 N-SH2 domain T42A 0.593 | SHP2 N-SH2 domain T52S 0.668 | [2] 1.12

MDFRSYPHEFG [RBM10_Y44_R46H_YF]
inactive: SHP2 C-SH2 domain E139D 0.903 | [1] 0.706 | SHP2 N-SH2 domain L43F 0.817 | SHP2 N-SH2 domain T42A 0.926 | SHP2 N-SH2 domain T52S 0.853 | [2] 0.8

FYRNVYHLASV [RBL1_Y796_K794N]
inactive: SHP2 C-SH2 domain E139D 0.811 | [1] 0.642 | SHP2 N-SH2 domain L43F 0.683 | SHP2 N-SH2 domain T42A 0.591 | SHP2 N-SH2 domain T52S 0.839 | [2] 0.649

VVTFSYKPPGN [RBL2_Y544]
inactive: SHP2 C-SH2 domain E139D 1.26 | [1] 1.39 | SHP2 N-SH2 domain L43F 1.22 | SHP2 N-SH2 domain T42A 1.51 | SHP2 N-SH2 domain T52S 1.54 | [2] 1.25

NQLNDYIFSFD [RARS1_Y516_R512Q]
inactive: SHP2 C-SH2 domain E139D 1.01 | [1] 0.814 | SHP2 N-SH2 domain L43F 0.931 | SHP2 N-SH2 domain T42A 0.995 | SHP2 N-SH2 domain T52S 1.01 | [2] 0.992

SLALFYRKVYH [RBL1_Y792]
inactive: SHP2 C-SH2 domain E139D 0.272 | [1] 0.337 | SHP2 N-SH2 domain L43F 0.236 | SHP2 N-SH2 domain T42A 0.239 | SHP2 N-SH2 domain T52S 0.357 | [2] 0.343
